The results in this text go back to the supplement of paper PMC12217912.

The list shows a part of the results. Sequences were assembled here from the parent chain. Inactive controls read about 0.05.

The chains are these.
B1: TEV protease; numbered along this chain (parent)
chain: MGESLFKGPRDYNPISSSICHLTNESDGHTTSLYGIGFGPFIITNKHLFRRNNGTLVVQSLHGVFKVKDTTTLQQHLVDGRDMIIIRMPKDFPPFPQKLKFREPQREERICLVTTNFQTKSMSSMVSDTSCTFPSGDGIFWKHWIQTKDGQCGSPLVSTRDGFIVGIHSASNFTNTNNYFTSVPKNFMELLTNQEAQQWVSGWRLNADSVLWGGHKVFMVKPEEPFQPVKEATQL

The variants in the experiment derive from B1. Description: raw area under fraction-flipped curve 0-4 h after induction (AUC4h, not background-subtracted), DNA-recorder readout of cleavage of the substrate (dimensionless); higher = more cleavage of the substrate by the protease variant. As to conditions: temperature: 34 °C; time window: 0-4 h after rhamnose induction. As for the experimental part: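 In vivo DNA recorder in E. coli TOP10(DE3) ΔrhaA at 34 °C. Each TEVp single-site mutant (parent TEVp 0) is paired with a single-site variant of the 7-mer TEVs (canonical ENLYFQ|S). The substrate sits between flexible linkers in a Bxb1-sfGFP-TEVs-SsrA fusion, so cleavage stabilises Bxb1 and speeds flipping of a recombination array, read by NGS. The value is the raw area under the fraction-flipped curve over 0-4 h after rhamnose induction (AUC4h), with ≥20 reads per time point. It is not background-subtracted; inactive controls average about 0.047.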
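Also: Bxb1 expression induced with 0.2% (w/v) L-rhamnose at OD600 near 0.5, cultures sampled hourly, flipped fraction per protease–substrate barcode pair counted by paired-end Illumina sequencing.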

On to MGESLFKGPRDYNPISSSICHLTNESDGHTTSLYGIGFGPFIITNKHLFRRNNGTLVVQSLHGVFKVKDTTTLQQHLVDGRDMIIIRMPKDFPPFPQKLKFREPQREERICLVTTNFQTKSMSSMVSDTSCTFPSGDGIFWKHWIQTKDGQCGSPLVSTRDGFIVGIHSASNFTNTNNYFTSVPKNFMELLTNSEAQQWVSGWRLNADSVLWGGHKVFMVKPEEPFQPVKEATQL [Q194S], for which the “area with substrate ENLYAQS” value amounted to 0.0697, the “area with substrate ENLYDQS” value came to 0.0569, the “area with substrate ENLYGQS” value was found to be 0.0699 and the “area with substrate ENLYHQS” value was 0.0713. Also, the “area with substrate ENLYKQS” value came to 0.0647 and the “area with substrate ENLYNQS” value was determined as 0.0417.
With MGESLFKGPRDYNPISSSICHLTNESDGHTTSLYGIGFGPFIITNKHLFRRNNGTLVVQSLHGVFKVKDTTTLQQHLVDGRDMIIIRMPKDFPPFPQKLKFREPQREERICLVTTNFQTKSMSSMVSDTSCTFPSGDGIFWKHWIQTKDGQCGSPLVSTRDGFIVGIHSASNFTNTNNYFTSVPKNFTELLTNQEAQQWVSGWRLNADSVLWGGHKVFMVKPEEPFQPVKEATQL [M188T], the “area with substrate ENLYAQS” value amounted to 0.0613, the “area with substrate ENLYGQS” value was determined as 0.0695, the “area with substrate ENLYHQS” value was 0.0714 and the “area with substrate ENLYKQS” value stood at 0.0595. In addition, the “area with substrate ENLYMQS” value amounted to 0.102, the “area with substrate ENLYNQS” value amounted to 0.0784, the “area with substrate ENLYPQS” value came out at 0.0708 and the “area with substrate ENLYQQS” value amounted to 0.0663. Moreover, the “area with substrate ENLYRQS” value came to 0.0665, the “area with substrate ENLYSQS” value is 0.0656, the “area with substrate ENLYVQS” value turned out to be 0.139 and the “area with substrate ENLYWQS” value came out at 0.097. In addition, the “area with substrate ENLYYQS” value worked out at 0.0738.
Take MGESLFKGPRDYNPISSSICHLTNESDGHTTSLYGIGFGPFIITNKHLFRRNNGTLVVQSLHGVFKVKDTTTLQQHLVDGRDMIIIRMPKDFPPFPQKLKFREPQREERICLVTTNFQTKSMSSMVSDTSCTFPSGDGIFWKHWIQTKDGQCGSPLVSTRDGFIVGIHSASNFTNTNNYFTSVPKNFMELLTNQEAQQWESGWRLNADSVLWGGHKVFMVKPEEPFQPVKEATQL [V200E]: the “area with substrate ENLYAQS” value came out at 0.0825, the “area with substrate ENLYEQS” value turned out to be 0.0655, the “area with substrate ENLYIQS” value is 0.0923 and the “area with substrate ENLYNQS” value was 0.0547. Further, the “area with substrate ENLYQQS” value stood at 0.0601.
For MGESLFKGPRDYNPISSSICHLTNESDGHTTSLYGIGFGPFIITNKHLFRRNNGTLVVQSLHGVFKVKDTTTLQQHLVDGRDMIIIRMPKDFPPFPQKLKFREPQREERICLVTTNFQTKSMSSMVSDTSCTFPSGDGIFWKHWIQTKDGQCGSPLVSTRDGFIVGIHSASNFTNTNNYFTSVPKNFMELITNQEAQQWVSGWRLNADSVLWGGHKVFMVKPEEPFQPVKEATQL [L191I], the “area with substrate ENLYAQS” value stood at 0.062, the “area with substrate ENLYDQS” value was 0.0749, the “area with substrate ENLYGQS” value came to 0.0676 and the “area with substrate ENLYLQS” value was 0.0837. The “area with substrate ENLYMQS” value stood at 0.0752, the “area with substrate ENLYPQS” value stood at 0.057, the “area with substrate ENLYRQS” value is 0.0353 and the “area with substrate ENLYTQS” value stood at 0.07. For the same variant, the “area with substrate ENLYVQS” value is 0.12, the “area with substrate ENLYWQS” value stood at 0.0505 and the “area with substrate ENLYYQS” value was determined as 0.0619.
In the case of MGESLFKGPRDYNPISSSICHLTNESDGHTTSLYGIGFGPFIITNKHLFRRNNGTLVVQSLHGVFKVKDTTTLQQHLVDGRDMIIIRMPKDFPPFPQKLKFREPQREERICLVTTNFQTKSMSSMVSDTSCTFPSGDGIFWKHWIQTKDGQCGSPLVSTRDGFIVGIHSASNFTNTNNYFTSVPKNFMELTTNQEAQQWVSGWRLNADSVLWGGHKVFMVKPEEPFQPVKEATQL [L191T], the “area with substrate ENLYAQS” value came out at 0.0581, the “area with substrate ENLYDQS” value came out at 0.0604, the “area with substrate ENLYEQS” value turned out to be 0.0632 and the “area with substrate ENLYGQS” value stood at 0.0553. Also, the “area with substrate ENLYHQS” value was 0.0637, the “area with substrate ENLYIQS” value stood at 0.0533, the “area with substrate ENLYKQS” value amounted to 0.0597 and the “area with substrate ENLYLQS” value is 0.0599. Moreover, the “area with substrate ENLYMQS” value is 0.0516, the “area with substrate ENLYNQS” value came to 0.0691, the “area with substrate ENLYPQS” value is 0.0726 and the “area with substrate ENLYQQS” value was 0.0782. Besides, the “area with substrate ENLYRQS” value worked out at 0.06, the “area with substrate ENLYSQS” value was found to be 0.0773, the “area with substrate ENLYTQS” value was 0.076 and the “area with substrate ENLYVQS” value came to 0.0957. Moreover, the “area with substrate ENLYWQS” value came to 0.0766 and the “area with substrate ENLYYQS” value came out at 0.0604.
As to MGESLFKGPRDYNPISSSICHLTNESDGHTTSLYGIGFGPFIITNKHLFRRNNGTLVVQSLHGVFKVKDTTTLQQHLVDGRDMIIIRMPKDFPPFPQKLKFREPQREERICLVTTNFQTKSMSSMVSDTSCTFPSGDGIFWKHWIQTKDGQCGSPLVSTRDGFIVGIHSASNFTNTNNYFTSVPKNFMELLTNQEAQQWVSGWRLNADSDLWGGHKVFMVKPEEPFQPVKEATQL [V210D], the “area with substrate ENLYAQS” value was found to be 0.0803, the “area with substrate ENLYCQS” value is 0.0734, the “area with substrate ENLYEQS” value worked out at 0.0733 and the “area with substrate ENLYGQS” value was found to be 0.0628. The “area with substrate ENLYHQS” value is 0.0596, the “area with substrate ENLYIQS” value stood at 0.0756, the “area with substrate ENLYKQS” value is 0.0161 and the “area with substrate ENLYLQS” value is 0.06. For the same variant, the “area with substrate ENLYMQS” value was determined as 0.0637, the “area with substrate ENLYNQS” value stood at 0.0547, the “area with substrate ENLYQQS” value turned out to be 0.0647 and the “area with substrate ENLYRQS” value was found to be 0.0575. For the same variant, the “area with substrate ENLYSQS” value was 0.0408, the “area with substrate ENLYVQS” value worked out at 0.078, the “area with substrate ENLYWQS” value was determined as 0.0733 and the “area with substrate ENLYYQS” value is 0.0709.
MGESLFKGPRDYNPISSSICHLTNESDGHTTSLYGIGFGPFIITNKHLFRRNNGTLVVQSLHGVFKVKDTTTLQQHLVDGRDMIIIRMPKDFPPFPQKLKFREPQREERICLVTTNFQTKSMSSMVSDTSCTFPSGDGIFWKHWIQTKDGQCGSPLVSTRDGFIVGIHSASNFTNTNNYFTSVPKNFMELLTNQEAQQWVSGWRLNADSKLWGGHKVFMVKPEEPFQPVKEATQL [V210K]: the “area with substrate ENLYAQS” value stood at 0.0676, the “area with substrate ENLYDQS” value is 0.0643, the “area with substrate ENLYEQS” value came to 0.0715 and the “area with substrate ENLYGQS” value came to 0.0539. For the same variant, the “area with substrate ENLYHQS” value was 0.0597, the “area with substrate ENLYIQS” value was 0.116, the “area with substrate ENLYKQS” value was found to be 0.0662 and the “area with substrate ENLYMQS” value was 0.0676. Moreover, the “area with substrate ENLYNQS” value stood at 0.0679, the “area with substrate ENLYPQS” value was 0.0632, the “area with substrate ENLYQQS” value worked out at 0.062 and the “area with substrate ENLYRQS” value was 0.0563. For the same variant, the “area with substrate ENLYSQS” value was found to be 0.0732 and the “area with substrate ENLYYQS” value turned out to be 0.0794.
For MGESLFKGPRDYNPISSSICHLTNESDGHTTSLYGIGFGPFIITNKHLFRRNNGTLVVQSLHGVFKVKDTTTLQQHLVDGRDMIIIRMPKDFPPFPQKLKFREPQREERICLVTTNFQTKSMSSMVSDTSCTFPSGDGIFWKHWIQTKDGQCGSPLVSTRDGFIVGIHSASNFTNTNNYFTSVPKNFMELLTNQEAQQWVSGWRLNADCVLWGGHKVFMVKPEEPFQPVKEATQL [S209C], the “area with substrate ENLYAQS” value was 0.0726, the “area with substrate ENLYDQS” value came to 0.0537, the “area with substrate ENLYEQS” value was found to be 0.069 and the “area with substrate ENLYGQS” value was 0.0678. Moreover, the “area with substrate ENLYHQS” value came out at 0.0648, the “area with substrate ENLYKQS” value worked out at 0.0646, the “area with substrate ENLYMQS” value was 0.093 and the “area with substrate ENLYNQS” value was 0.0571. For the same variant, the “area with substrate ENLYQQS” value worked out at 0.0596, the “area with substrate ENLYRQS” value is 0.0753, the “area with substrate ENLYTQS” value is 0.0865 and the “area with substrate ENLYVQS” value is 0.106. In addition, the “area with substrate ENLYWQS” value came to 0.0685.
MGESLFKGPRDYNPISSSICHLTNESDGHTTSLYGIGFGPFIITNKHLFRRNNGTLVVQSLHGVFKVKDTTTLQQHLVDGRDMIIIRMPKDFPPFPQKLKFREPQREERICLVTTNFQTKSMSSMVSDTSCTFPSGDGIFWKHWIQTKDGQCGSPLVSTRDGFIVGIHSASNFTNTNNYFTSVPKNFMELLTNQEAQYWVSGWRLNADSVLWGGHKVFMVKPEEPFQPVKEATQL [Q198Y]: the “area with substrate ENLYAQS” value worked out at 0.0604, the “area with substrate ENLYCQS” value came to 0.0662, the “area with substrate ENLYDQS” value came out at 0.0468 and the “area with substrate ENLYEQS” value is 0.0695. For the same variant, the “area with substrate ENLYGQS” value came out at 0.0745, the “area with substrate ENLYHQS” value came out at 0.0597, the “area with substrate ENLYIQS” value worked out at 0.0886 and the “area with substrate ENLYKQS” value stood at 0.0609. In addition, the “area with substrate ENLYLQS” value came out at 0.0711, the “area with substrate ENLYMQS” value was 0.0634, the “area with substrate ENLYNQS” value was determined as 0.069 and the “area with substrate ENLYPQS” value was found to be 0.0803. The “area with substrate ENLYQQS” value worked out at 0.0648, the “area with substrate ENLYRQS” value stood at 0.0605, the “area with substrate ENLYSQS” value was 0.0622 and the “area with substrate ENLYVQS” value is 0.116. Further, the “area with substrate ENLYYQS” value turned out to be 0.0545.
Turning to MGESLFKGPRDYNPISSSICHLTNESDGHTTSLYGIGFGPFIITNKHLFRRNNGTLVVQSLHGVFKVKDTTTLQQHLVDGRDMIIIRMPKDFPPFPQKLKFREPQREERICLVTTNFQTKSMSSMVSDTSCTFPSGDGIFWKHWIQTKDGQCGSPLVSTRDGFIVGIHSASNFTNTNNYFTSVPKNFMELLTNQEAQQWVPGWRLNADSVLWGGHKVFMVKPEEPFQPVKEATQL [S201P], the “area with substrate ENLYAQS” value is 0.0562, the “area with substrate ENLYDQS” value was determined as 0.052, the “area with substrate ENLYEQS” value is 0.0628 and the “area with substrate ENLYGQS” value worked out at 0.0503. Further, the “area with substrate ENLYHQS” value is 0.0708, the “area with substrate ENLYIQS” value was found to be 0.0566, the “area with substrate ENLYKQS” value was 0.0525 and the “area with substrate ENLYMQS” value worked out at 0.0578. The “area with substrate ENLYNQS” value stood at 0.059, the “area with substrate ENLYPQS” value came out at 0.0766, the “area with substrate ENLYQQS” value was determined as 0.0635 and the “area with substrate ENLYRQS” value is 0.0643. Also, the “area with substrate ENLYSQS” value was determined as 0.0548, the “area with substrate ENLYVQS” value came to 0.0583, the “area with substrate ENLYWQS” value amounted to 0.0511 and the “area with substrate ENLYYQS” value came to 0.0602.
